Structures are written as SMILES. Hit rate of the full screen: of about 150,000 compounds, about 540 (0.36%) showed an effect of 50% or more. This is one part of the list.

The % Inhibition is the drop in the measured response relative to a control, in per cent.

This experiment relates to Plasmodium falciparum. In words: Primary screen in NF54 nanoGlo assay, in single point, at 2uM, 72h; a lower Z score goes with more inhibition. Format: functional, Erythrocyte. The conditions noted are these: timepoint 72 hour.
With `C=C(C)CN(CC)S(=O)(=O)c1c(F)cccc1F`, the “% Inhibition” value turned out to be 12% and the Z score is given as -2.3.

Consider `CCOC(=O)N1CC[C@H](NCCc2csc(CC)n2)C1`, for which the “% Inhibition” value is recorded as 7% and the Z score is recorded as -1.01.

With `Cc1nc(NCc2ccc3c(c2)CCCC3)c2c(C)noc2n1`, the “% Inhibition” value is reported as -6% and the Z score is 0.51.

Consider `CCN1CCN(CC(=O)N2C[C@H](C)[C@@](O)(C3CC3)C2)CC1`, for which the “% Inhibition” value is -18% and the Z score is recorded as 1.55.

In the case of `CCC(=O)NS(=O)(=O)c1ccc(C)nc1`, the “% Inhibition” value is reported as 3% and the Z score is given as -0.27.

On to `CCCCN(Cc1cccn1Cc1ccc(Br)cc1)C(=O)CN(CCC(C)C)C(=O)COc1ccccc1`, for which the “% Inhibition” value is listed as -16% and the Z score is on record as 2.28.

`CCN(C)C(=O)C1CN(C(=O)c2ccco2)CC1c1cccc(C(F)(F)F)c1` (centres undefined): the “% Inhibition” value is reported as -10% and the Z score amounted to 1.48.

In the case of `CCC(CC)n1ncc(C)c1NC(=O)CNC(=O)c1nonc1C`, the “% Inhibition” value is -2% and the Z score is 0.27.

For `CC(C)Oc1ccccc1CNC(=O)N1CCCC[C@H]1c1nnc2n1CCCC2`, the “% Inhibition” value is on record as -26% and the Z score is recorded as 2.61.

Consider `Cc1ccc(S(=O)(=O)c2c(C)c(C)n(CC(C)C)c2NC(=O)c2cccs2)cc1`, for which the “% Inhibition” value was -8% and the Z score is 0.98.

As to `NC(=O)Cc1nc(CN2CCOCC2)n(-c2cccc3c2CCC3)n1`, the “% Inhibition” value is recorded as 1% and the Z score is given as -0.07.

Take `CN(C(=O)c1cc(O)nc2ccccc12)c1ccc(S(C)(=O)=O)cc1`: the “% Inhibition” value is -2% and the Z score is 0.2.

As for `Cc1ncccc1C(=O)N[C@H]1CCOC[C@@H]1Oc1cccc(F)c1`, the “% Inhibition” value is -3% and the Z score was 0.32.

For `C[C@H](Oc1cnc2ccccc2c1)C(=O)N1CCCC2(CC1)CC2`, the “% Inhibition” value was -15% and the Z score came out at 2.91.

Regarding `Cc1noc(C)c1CN1CC2(CCN(c3ccnc4ccccc34)CC2)CC1=O`, the “% Inhibition” value is reported as -2% and the Z score came to 0.34.

As to `O=C(NCC1CCS(=O)(=O)C1)C1CC1c1ccc2ccccc2c1` (centres undefined), the “% Inhibition” value is given as -7% and the Z score is reported as 0.76.

As to `CCCN1CCCN(c2ccnc(C(=O)NCc3ccncc3)c2)CC1`, the “% Inhibition” value is -8% and the Z score is 1.5.

In the case of `c1ccc2c(c1)CCO[C@H]2C1NCCN1`, the “% Inhibition” value is recorded as -5% and the Z score came to 0.64.

Consider `Cc1noc(C)c1Cn1c(NCCO)nc2ccccc21`, for which the “% Inhibition” value is given as -12% and the Z score worked out at 2.29.

Turning to `CC1CCC(C(C)C)C(NC(=O)CCNS(C)(=O)=O)C1` (centres undefined), the “% Inhibition” value came to 12% and the Z score is given as -1.8.

Turning to `CCCc1ccc(C(=O)N2CCC(n3nccn3)CC2)cc1`, the “% Inhibition” value was -9% and the Z score amounted to 0.99.

Consider `Cc1ccc(C)c2[nH]c(=O)c(CCNC(=O)C(C)(C)Oc3ccc(Cl)cc3)cc12`, for which the “% Inhibition” value is on record as -9% and the Z score came to 1.6.

As for `CC(=O)N1CCO[C@@H](Cn2ccnc2-c2nccn2C)C1`, the “% Inhibition” value is -9% and the Z score came out at 1.02.

`CC[C@@H](C(=O)N(CCc1ccccc1)C1CCN(C)CC1)n1cccn1`: the “% Inhibition” value is recorded as -20% and the Z score amounted to 2.36.

Regarding `c1ccc(-n2ncc3c(N4CCC[C@H](N5CCCC5)C4)ncnc32)cc1`, the “% Inhibition” value worked out at 2% and the Z score was -0.26.

Regarding `Cc1ccc(NS(=O)(=O)CCCN2C(=O)c3ccccc3C2=O)c(Cl)c1`, the “% Inhibition” value is reported as -39% and the Z score is listed as 4.56.

For `CN1CCc2c(c(N3CCN(C(c4ccccc4)c4ccccc4)CC3)nc3[nH]nc(N)c23)C1`, the “% Inhibition” value is reported as -24% and the Z score is on record as 2.87.

Take `O=C(CCn1c(=S)oc2ccccc21)N1CCc2ccccc2C1`: the “% Inhibition” value stood at 11% and the Z score is -1.27.

Take `O=C(Nc1ccc(Cl)cn1)c1cc2c(s1)CCCC2`: the “% Inhibition” value is on record as -9% and the Z score came to 0.92.

`C[C@@H](CC(=O)NS(=O)(=O)c1cnn(C)c1)c1ccccc1F`: the “% Inhibition” value worked out at 6% and the Z score is -0.89.

For `CCCCNC(=O)[C@H](CC(N)=O)NS(=O)(=O)c1cccc(F)c1`, the “% Inhibition” value was determined as 5% and the Z score is -0.68.

`C[C@H](Oc1ccccc1)C(=O)Nc1c2c(nn1-c1ccccc1)CS(=O)(=O)C2`: the “% Inhibition” value is on record as -12% and the Z score is recorded as 2.08.

For the compound `CC(C)Cc1noc(CNC(=O)Cn2ncc(N(C)C)cc2=O)n1`, the “% Inhibition” value was 14% and the Z score is recorded as -1.59.

For `CCOc1cncc(CN(C)[C@H]2CC[C@H](O)CC2)c1`, the “% Inhibition” value was -10% and the Z score stood at 1.94.

As for `CC1CCN(C(=O)Cc2nnc(-c3ccccc3)o2)CC1`, the “% Inhibition” value was -7% and the Z score is on record as 0.92.

With `COc1cccc(NC(=O)CN2CN(c3ccccc3)C3(CCN(C(=O)C[C@@H](C)CC(C)(C)C)CC3)C2=O)c1`, the “% Inhibition” value worked out at 23% and the Z score is -4.35.

With `CN1CCn2nc(NC(=O)NCc3cc(C(F)F)on3)cc2C1`, the “% Inhibition” value was -8% and the Z score was determined as 0.9.

For `CN(CCCn1ccnc1)Cc1nc2ccccc2o1`, the “% Inhibition” value is on record as 2% and the Z score is -0.17.

On to `CCN1C(=O)[C@@H]2CC3(CCN(C(=O)c4ncoc4-c4cccc(C)c4)CC3)CN2C1=O`, for which the “% Inhibition” value is 2% and the Z score is reported as -0.25.

As for `O=C1N(Cc2cccc(F)c2F)CCC[C@@]1(O)CN1CCN(CC2CCC2)CC1`, the “% Inhibition” value was -8% and the Z score is given as 0.92.

In the case of `CC(=O)NC1(c2noc(-c3cnccn3)n2)CCCCC1`, the “% Inhibition” value is -9% and the Z score worked out at 1.04.

For `COc1cccc2c(=O)n([C@H]3C[C@H]4CC[C@@H]3C4)cnc12`, the “% Inhibition” value is listed as -8% and the Z score stood at 1.05.

Values taken from ChEMBL document CHEMBL4888484, “Replenishing the malaria drug discovery pipeline: Screening and hit evaluation of the MMV Hit Generation Library 1 (HGL1) against asexual blood stage Plasmodium falciparum ,using a nano luciferase reporter read-out” (2022).
